This assay deals with influenza virus (IAV). In kind it is cell-based.

In the case of `COc1ccc(Br)cc1CNC12CC3CC(CC(C3)C1)C2` [ABMA, 1-adamantyl (5-bromo-2-methoxybenzyl) amine], the “virus titers in A549 cells” value is on record as “significantly decreased” and the “virus titers in MDCK cells” value was “significantly decreased”.

Regarding `COc1ccc(Br)cc1CNC12CC3CC(C)(CC(C)(C3)C1)C2` [DABMA, 1,3-dimethyl-1-adamantyl (5-bromo-2-methoxybenzyl) amine], the “virus titers in A549 cells” value was “significantly decreased” and the “virus titers in MDCK cells” value is “significantly decreased”.

Values taken from publication PMC8999625, “Antiviral Effects of ABMA and DABMA against Influenza Virus In Vitro and In Vivo via Regulating the Endolysosomal Pathway and Autophagy” (International Journal of Molecular Sciences, 2022).
